Consider 71 sequences from the supplement of paper PMC10338343.

± gives the standard deviation. Over roughly 6,600 sequences, “pre-steady-state target cleavage rate” has its median near 0.07; the highest 2% begin near 0.72. This is a selection; strong and weak results do not stand in their true shares.

The test deals with MIWI (PIWIL1) piRISC loaded with Kctd7 piRNA (30 nt). Kind of test: pre-steady-state target cleavage rate (min^-1); MIWI and MILI are mouse PIWI proteins and EfPiwi is from a freshwater sponge; tags in brackets are library labels; higher = faster piRNA-guided slicing of the target. The following applies: guide: Kctd7 piRNA 5'p-UGUUAAUCUCUCAGAGAAGGUGACAGUGAU; auxiliary factor: 500 nM mouse GTSF1. The method, then: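 Cleave-'n-Seq: a library of target RNAs (target site embedded in constant flanks, ACAGCATTCCGCGTTAGTGATATCCG... 5' flank; DNA-blocked outside the site) at 0.1 nM was incubated with 1 nM active mouse MILI or MIWI piRISC (synthetic 5'-monophosphorylated piRNA guide) with or without 500 nM mouse GTSF1 at 33 °C for 1 min to 16 h. Uncleaved targets were sequenced and normalised to non-target controls, and the pooled three trials were fitted to a burst-and-steady-state model to give the pre-steady-state cleavage rate (min^-1; k3 is constrained to at most 1e-4). Sequence is the target site only; target names encode pairing extent (gX:gY) and contiguous / 1-mismatch / 2-mismatch / bulge geometry. Fits with R² ≤ 0 are excluded.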
For the sequence UACACUGUCACCUUGACUGAGAGAUUAACA, the “pre-steady-state target cleavage rate” value is 0.16 ± 0.028. The same measure for UUCACUGUCACCUUCUGUGACAGAUUAACA: 0.0405 ± 0.01. As for UAGUGUGUCACCAUCUCUGAGAGAUUUACA, the “pre-steady-state target cleavage rate” value stood at 0.309 ± 0.047. With UAGACUGUCACGUUCUCUGAGAGAUUAAGA, the “pre-steady-state target cleavage rate” value turned out to be 0.0865 ± 0.016. With UUCACUGUCACCUUCUCUCUCAGAUUUUGA the figure was 0.00881 ± 0.0043.

Take UACACUUGUCACCUUCUCUGAGAGAUUAACA: the “pre-steady-state target cleavage rate” value amounted to 0.631 ± 0.088. With UACACUGUCCCCUUCUCUGAGAGAUUAACA the figure was 0.688 ± 0.036; with UAGUGACACACCUUGUCUGAGUGAUUAACA, 0.0146 ± 0.0033. As for UUGUGUGUCACCUUCUCUGAGAGAUUUUGA, the “pre-steady-state target cleavage rate” value was determined as 0.0846 ± 0.018. For the sequence UAGUGACACACCAUCUCUGAGAGUUUAACA, the “pre-steady-state target cleavage rate” value is 0.0697 ± 0.013. UAGUGUGUCACCUACUGUGAGAGAUUAACA: the “pre-steady-state target cleavage rate” value is 0.414 ± 0.029. With UAGUGACAGACACUUCUCUGAGAGAUUAACA the figure was 0.0364 ± 0.0064. Take UAGUCUGUCACCUUCUCUGAGAGAUUACA: the “pre-steady-state target cleavage rate” value came out at 0.21 ± 0.035. Consider UAGUGACACACCUUCUCAGAGAGAUAAACA, for which the “pre-steady-state target cleavage rate” value came out at 0.0317 ± 0.0075. UAGUGACUCACGUUCUCUGAGAGAUUUUGA: the “pre-steady-state target cleavage rate” value was less than 0.0001. As to UAGUGACAGUGGAUCUCUCUCAGAUUAACA, the “pre-steady-state target cleavage rate” value was less than 0.0001. With AUCACUGAGACCUUCUCUGAGAGAUUAACA the figure was 0.559 ± 0.021. UAGACUGUCAGCUUCUCUGAGAGAUUAUGA: the “pre-steady-state target cleavage rate” value came to 0.0141 ± 0.0041. For AUCACUGUCACCUUCUCUGAGAGAAUAACA, the “pre-steady-state target cleavage rate” value amounted to 0.421 ± 0.078. With UAGUGAGUCACCUACACUGAGAGAUUAACA the figure was 0.202 ± 0.018. The same measure for UAGUGAGUGUCCUUCUCUGAGAGAUUAAGA: 0.0803 ± 0.017; for UAGACUGUCACCUACACUGAGAGAUUAACA: 0.307 ± 0.026; for UAGACUGACUCCUUCUCUGAGAGAUUAACA: 0.494 ± 0.035. The same measure for UACACUGUCUCCUUCUCUCAGAGAUUAACA: 0.0717 ± 0.0071. As to “UAGUGACAGUCCUUCUCUGAGAGAUUAACU [g2:g20:cont:t1U]”, the “pre-steady-state target cleavage rate” value worked out at 0.0396 ± 0.005.

With AUCACUGUCACCUACUCUGAGUGAUUAACA, the “pre-steady-state target cleavage rate” value came to 0.0274 ± 0.0048. With UAGUGAGCUCACCUUCUCUGAGAGAUUAACA the figure was 0.463 ± 0.049; with AUCACUGUCACCUUGACUGAGAGAUUUUGA, 0.839 ± 0.22. The same measure for UAGUGACAGUCCUUCUCUGAGAGAUUACCA: 0.0154 ± 0.0044; for UAGUGAGCCACCUUCUCUGAGAGAUUAACA: 0.566 ± 0.049.

With AUCACUGUCACCUUCACUGAGUGAUUAACA, the “pre-steady-state target cleavage rate” value was 0.0332 ± 0.007. With UAGACUGUCACCAUCUCUGAGAGAAUAACA the figure was 0.293 ± 0.058.

For the sequence UAGUGUGUGUGCUUCUCUGAGAGAUUAAGA, the “pre-steady-state target cleavage rate” value worked out at 0.0191 ± 0.0053. Consider AUCACUGUCUCGUUCUCUGAGAGAUUAACA, for which the “pre-steady-state target cleavage rate” value was 0.667 ± 0.044.

Consider UAGUGACACACCUUCUCAGAGAGAUUAUGA, for which the “pre-steady-state target cleavage rate” value came to 0.00744 ± 0.004.

In the case of UAGUGUGUCACCUUCUCUGUGAGAAUAACA, the “pre-steady-state target cleavage rate” value turned out to be 0.0482 ± 0.0096. The same measure for UACACUGUCACCUUCUCUCAGAGAUUUACA: 0.0629 ± 0.012; for UAGUCUGUCACCUUCUCAGAGAGAUAUUGA: 0.0117 ± 0.0068. The same measure for UAGUGUGUCACCUUCUCACAGAGAUUAACA: 0.0281 ± 0.0083; for UACACUGUCACCAUGUCUGAGAGAUUAACA: 0.162 ± 0.015. With UAGUGACAGACCUGCUCUGAGAGAUUAACA, the “pre-steady-state target cleavage rate” value was determined as 0.0582 ± 0.0082. The same measure for UACACUGUCACCCUCUCUGAGAGAUUAACA: 0.601 ± 0.035; for UAGACUGUCACCUACUCUGAGAGUUUAACA: 0.147 ± 0.023.

As for UAGUGACUCACCUUCUCUGAGACAUUUACA, the “pre-steady-state target cleavage rate” value amounted to 0.021 ± 0.0055. With UAGUGUAUCACCUUCUCUGAGAGAUUAACA the figure was 0.443 ± 0.021. The same measure for UAGUCUGUCACCUUCUCUGUGAGUUUAACA: 0.114 ± 0.013; for UAGUGACACACCUGCUCUGAGAGAUUAACA: 0.317 ± 0.024; for UAGACUGUCACCUUCCUGAGAGAUUAACA: 0.0692 ± 0.019. The same measure for AGCACUGUCACCUUCUCUGAGAGAUUAACA: 0.765 ± 0.044; for UAGUCACUCACCUUCUCUGAGAGAUUUUGA: 0.0618 ± 0.014.

For UACACUGUCACCUUCUCUGAGAGUUAAACA, the “pre-steady-state target cleavage rate” value was 0.333 ± 0.063.

Take UAGUGUGUCACCUUCUCUGAGUGAUUAACA: the “pre-steady-state target cleavage rate” value amounted to 0.0272 ± 0.007. UACAUUGUCACCUUCUCUGAGAGAUUAACA: the “pre-steady-state target cleavage rate” value amounted to 0.576 ± 0.027.

In the case of UUCACUGUCACCUUCUCUGAGACUUUUUGA, the “pre-steady-state target cleavage rate” value is 0.018 ± 0.0073. With UACACUCUCACCUUCUCUGAGAGUUUAACA the figure was 0.121 ± 0.017; with UAGACUGUCACCAUCUCUGAGAGUUUAACA, 0.138 ± 0.019. With UAGACUGUCACCUUCUCAGAGAGAUUAUCA the figure was 0.186 ± 0.025; with UAGUCUGUCUCCUUCUCUGAGAGAAUAACA, 0.222 ± 0.04. The same measure for UAGUGAGUCACCUACUCUGAGAGAUUAAGA: 0.13 ± 0.021; for UUCACUGUGACCUUCUCUGAGAGAUUAACA: 0.601 ± 0.035; for UAGUGACACUCCUUCUCUGAGAGAUAAACA: 0.0686 ± 0.0096. Consider UUCACUGUCUCCUUCUCUGUGAGAUUAACA, for which the “pre-steady-state target cleavage rate” value stood at 0.254 ± 0.018. With UAGACUGUCACCUUCUCUGAGAGAUAAAGA the figure was 0.0134 ± 0.0048; with UAGUCUGUCACCUUCUCAGAGAGAUUUUGA, 0.0587 ± 0.02. For the sequence UAGACUGUCACCUACUCUGAGAGAUUAUGA, the “pre-steady-state target cleavage rate” value amounted to 0.0146 ± 0.0066. With UAGUGACAGUCCUUCUGUGAGAGAUUAAGA the figure was 0.00317 ± 0.0026. With UUCACUGUGACCUUCUCUGAGAGAUUUUGA the figure was 0.0706 ± 0.013; with “UAGUGACAGUCCUUCUCUGAGAGAUUAACC [g2:g20:cont:t1C]”, 0.043 ± 0.0069; with AUCACUGUCACCUUCUCUGAGAGAAAUACA, 0.165 ± 0.04. Regarding UAGUGAGUCACCUUCUGUGAGAGAUUUACA, the “pre-steady-state target cleavage rate” value was 0.0976 ± 0.013.

Turning to UAGUGACUGACCUUCUCUGAGAGAAUAACA, the “pre-steady-state target cleavage rate” value came out at 0.0371 ± 0.011.
